# Paper PMC4336329 (PLoS ONE, 2015)
# The campaign covered roughly 310,000 compounds. About 2,200 (0.71%) showed an effect of 50% or more. Effects have a minus sign here. Some of the results follow.
# Biological target: human ether-à-go-go-related gene (hERG) potassium channel (human, UniProt Q12809)
# Assay: primary screen, population patch clamp on CHO cells stably expressing hERG
# Chain of human ether-à-go-go-related gene (hERG) potassium channel (Q12809 whole entry, looked up): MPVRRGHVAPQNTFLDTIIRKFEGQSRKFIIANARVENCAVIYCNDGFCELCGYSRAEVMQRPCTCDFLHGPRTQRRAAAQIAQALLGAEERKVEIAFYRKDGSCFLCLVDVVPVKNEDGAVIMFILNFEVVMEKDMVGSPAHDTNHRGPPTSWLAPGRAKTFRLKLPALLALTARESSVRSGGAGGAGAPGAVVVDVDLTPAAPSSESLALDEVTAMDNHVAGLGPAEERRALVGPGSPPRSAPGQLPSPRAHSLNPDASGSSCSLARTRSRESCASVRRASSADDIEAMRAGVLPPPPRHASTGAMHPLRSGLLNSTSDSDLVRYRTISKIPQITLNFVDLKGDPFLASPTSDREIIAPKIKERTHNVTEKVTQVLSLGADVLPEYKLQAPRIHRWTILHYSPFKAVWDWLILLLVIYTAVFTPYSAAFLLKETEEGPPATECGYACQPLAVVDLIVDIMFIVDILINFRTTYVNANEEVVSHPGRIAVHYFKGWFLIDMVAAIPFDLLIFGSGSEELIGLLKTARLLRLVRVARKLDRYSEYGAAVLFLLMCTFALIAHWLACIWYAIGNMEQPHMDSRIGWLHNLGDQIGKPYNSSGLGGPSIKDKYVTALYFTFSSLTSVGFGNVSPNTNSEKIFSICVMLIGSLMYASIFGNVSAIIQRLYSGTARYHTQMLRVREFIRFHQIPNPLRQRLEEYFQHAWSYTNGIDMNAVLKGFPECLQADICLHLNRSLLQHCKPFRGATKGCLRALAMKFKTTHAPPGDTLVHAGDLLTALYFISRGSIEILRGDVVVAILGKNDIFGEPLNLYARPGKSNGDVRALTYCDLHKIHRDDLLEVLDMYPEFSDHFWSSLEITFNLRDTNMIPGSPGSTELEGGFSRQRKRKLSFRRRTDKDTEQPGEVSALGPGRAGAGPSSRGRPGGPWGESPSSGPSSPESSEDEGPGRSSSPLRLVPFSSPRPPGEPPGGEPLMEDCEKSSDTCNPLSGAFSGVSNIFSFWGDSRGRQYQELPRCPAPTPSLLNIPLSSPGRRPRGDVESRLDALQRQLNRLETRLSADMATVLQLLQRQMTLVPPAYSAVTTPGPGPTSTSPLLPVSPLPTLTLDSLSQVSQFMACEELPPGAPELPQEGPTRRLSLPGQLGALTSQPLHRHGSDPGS
row,Compound,"hERG current change (%, negative = inhibition) at 1uM [%]"
1,O=C(CN1CCN(c2ccccc2)CC1)Nc1ccc(-n2cnnn2)cc1,6.89
2,O=C(Nc1ccc(N2CCOCC2)cc1)c1ccc(Cl)nc1,8.92
3,CC(C)Sc1nc2ccc(Br)cc2[nH]1,2.07
4,O=C(C1CCCN(S(=O)(=O)c2cnc[nH]2)C1)N1CC(=O)N(CCc2ccccc2)C(=O)C1 (stereo not shown),5.42
5,CC1CCCN(CC(=O)Nc2ccc(S(=O)(=O)NC3CCCCC3)cc2)C1 (stereo not shown),-1.25
6,N#Cc1ccc(OCC(=O)N2CCN(c3ccc(C(F)(F)F)cn3)CC2)cc1,-8.68
7,CC(=O)N1CC(C)Sc2ccc(S(=O)(=O)N3CCCCC3)cc21 (stereo not shown),8.08
8,O=C(CO/N=C/c1ccccc1OC(F)F)NCc1cccs1,9.33
9,O=C(NCCCc1ccccc1)c1cc(COc2c(F)cccc2F)on1,0.146
10,CCOC(=O)c1sc2nc(C3CC3)cc(-c3ccc(OC)cc3)c2c1N,13.1
11,CCOc1cc(N2CCOCC2)c(OCC)cc1NC(=O)CN1CCc2ccccc2C1,17.1
12,Cc1ccc(OCCn2c(=S)[nH]c3c(N)ncnc32)cc1,19.8
13,COc1ccc(N(CC(=O)N/N=C/c2ccc(OC)cc2OC)S(=O)(=O)c2ccccc2)cc1,16.1
14,Cn1c(CC(=O)Nc2ccccc2)n[nH]c1=S,7.8
15,CCn1c(SCC(=O)Nc2ccccc2F)nnc1-c1cnccn1,14.8
16,CCCOc1ccc(C(F)(F)F)cc1NC(=O)C1CC(=O)N(Cc2ccco2)C1 (stereo not shown),-4.68
17,Cc1cc2c3c([nH]c2cc1S(=O)(=O)N1CCC2(CC1)OCCO2)CC(C)(C)CC3=O,6.46
18,O=C(O)C(Cl)(Cl)Cl,3.43
19,O=S(=O)(c1ccc(Br)cc1)N1CCCN(Cc2ccccc2F)CC1,3.97
20,CN1CCN(CCCNC(=O)Cn2nc(-c3ccccc3)ccc2=O)CC1,8.09
21,CCOC(=O)C1CCN(CCC(=O)Nc2ccccc2Cl)CC1.Cl,0.369
22,C[C@@H](C(=O)Nc1nc2ccc(F)cc2s1)N1C(=O)C2CC=CCC2C1=O (stereo partly shown),4.44

row,Compound,"hERG current change (%, negative = inhibition) at 1uM [%]"
1,COc1cc(C(=O)O)cc(OC)c1OCc1cc(C(=O)O)oc1C,15.4
2,Cc1cc(NCCCn2ccnc2)n2ncc(-c3ccc(Cl)cc3)c2n1,-25.2
3,CCc1cc(=O)oc2cc(OCC(=O)N(CC)CC)c(Cl)cc12,15.3
4,Cc1nc2c(-c3ccc(F)cc3)c(C)nn2c(C)c1CCC(=O)N1CCC(Cc2ccccc2)CC1,5.52
5,O=S(=O)(c1ccccc1F)N1CCc2ccccc2C1,17.6
6,CC(=O)N(CN1C(=O)c2ccccc2C1=O)c1cccc(C)c1,3.96
7,CCCCn1c(N)c(N(Cc2ccccc2OC)C(=O)COc2ccccc2C#N)c(=O)[nH]c1=O,8.57
8,O=S(=O)(c1ccc2nnn(O)c2c1)N1CCCCC1,11.4
9,Cc1ccc(-n2c(SCC(=O)NCc3ccco3)nc3sc(C)c(C)c3c2=O)cc1,12.1
10,COc1ccc(NC(=O)CS(=O)CC(=O)Nc2ccc(NC(C)=O)cc2)cc1 (stereo not shown),7.24
11,CC(=O)N1CCC(N2CCN(c3ccccc3F)CC2)CC1,0.633
12,COc1ccc(NC(=O)c2ccc(-c3nn(C)c(=O)c4ccccc34)cc2)cc1,9.83
13,O=C(/C=N/NC(=O)c1ccccc1Br)c1ccccc1,4.31
14,CC1CC(C)CN(C(=O)CNC(=O)Cn2ccc3ccccc3c2=O)C1 (stereo not shown),6.56
15,CCc1ccc(/C=N/n2c(C)cc(C)c(C#N)c2=O)cc1,14.5
16,COC(=O)c1cc(NC(=O)CN(C)Cc2ccccc2)cc(C(=O)OC)c1,9.48
17,C#CCOCCOCCOCCNc1nc(N2CCN(C(=O)CCCCCCCCCCNC(=O)[C@@H](CCSC)n3cc(CCO)nn3)CC2)nc(N2CCN(C(=O)CCCCCCCCCCNC(=O)[C@H]([C@@H](C)CC)n3cc(CCCCN=C(N)N)nn3)CC2)n1,11.8
18,COc1cc(C(=O)Nc2oc(-c3ccccc3)c(-c3ccccc3)c2C#N)cc(OC)c1OC,-14.5
19,CCOC(=O)c1[nH]c2cc3c(cc2c1CCCN1C(=O)c2ccccc2C1=O)OCCO3,0.667
20,CCCCC1=CC2=CC(=O)C(C)(OC(=O)CC)C(=O)C2=CO1 (stereo not shown),19
21,COc1ccc(CC(=O)N/N=C(\C)CC(=O)Nc2cccc(F)c2)cc1,9.98
22,O=C(CCl)N1CCCC1c1ccc2c(c1)OCCO2 (stereo not shown),16.8

row,Compound,"hERG current change (%, negative = inhibition) at 1uM [%]"
1,CCc1noc(C)c1C(=O)NNC(=O)COc1ccccc1C,8.72
2,COc1cccc(C(=O)Nc2cccc(-c3nc4ncccc4o3)c2C)c1,12.6
3,O=c1c([N+](=O)[O-])c(N2CCCCC2)c2ccccc2n1-c1ccccc1,12.1
4,Cc1cc(=O)oc2ccc(OCC(=O)N(Cc3ccc(F)cc3)Cc3ccco3)cc12,-19.7
5,CC(C)C(O)(C#CCN1CCCCC1)c1ccccc1.Cl (stereo not shown),8.05
6,O=C1OCCN1P(=O)(c1ccccc1)c1ccccc1,0.204
7,CN1CC2(C)OC(=O)C(Cl)=C2CC1c1ccccc1 (stereo not shown),11.2
8,Cc1cc(-c2ccc(Cl)cc2)c2cnn(C(C)C)c2n1,15.7
9,Cc1cc(C)cc(NC(=O)CSc2nc3c(oc4ccccc43)c(=O)n2-c2ccccc2)c1,-1.68
10,Cc1csc(SCC(=O)N2CCN(S(=O)(=O)c3ccc(Cl)cc3)CC2)n1,-7.12
11,CC(=O)Nc1ccccc1P(=O)(c1ccccc1)c1ccccc1OC(C)=O (stereo not shown),13.3
12,CCOc1c(C(N)=O)cc([N+](=O)[O-])cc1[N+](=O)[O-],10.8
13,Cc1cc(C)nc(NS(=O)(=O)c2ccc(NC(=O)CN3C(=O)S/C(=C\c4ccccc4)C3=O)cc2)n1,6.31
14,C=CCOc1ccc(C2N3CC4(CC)CN2CC(CC)(C3)C4=O)cc1 (stereo not shown),-0.798
15,CN(C)S(=O)(=O)c1cccc(NC(=O)c2ccc3c(c2)S(=O)(=O)N=C2CCCCCN23)c1,19.6
16,COc1ccc2[nH]c(C(=O)O)c(CCN3C(=O)c4cccc([N+](=O)[O-])c4C3=O)c2c1,11.9
17,Cc1cccc(C)c1NC(=O)C1CCCN1C(=O)OC(C)(C)C (stereo not shown),10.5
18,COc1ccc(C(=O)N2CCN(C(=O)c3cc(OC)c(OC)c(OC)c3)CC2)cc1,-8.94
19,Cc1ccc(C(=O)n2c3ccccc3c3ccccc32)cc1,10.5
20,CCc1ccc2[nH]c(=O)c(CN(CCN(C)C)C(=O)Nc3ccccc3OC)cc2c1,-41.4
21,COc1ccc(-c2noc(CNC(=O)c3ccc4c(c3)OCO4)n2)cc1,2.84
22,COc1ccccc1-c1cc(C(=O)Nc2ccc(F)cc2F)no1,5

row,Compound,"hERG current change (%, negative = inhibition) at 1uM [%]"
1,O=C(Oc1ccc2ccccc2c1)c1cncc(Br)c1,-3.28
2,O=C(NCc1ccc(F)cc1)c1cccc2c1C(=O)c1ccc(N3CCOCC3)cc1S2(=O)=O,14.1
3,Cc1cccc(C(=O)NN(C)c2nc(-c3ccccc3)nnc2C(F)(F)F)c1,-4.7
4,Cl.N=c1n(CCN2CCCC2)c2ccccc2n1CC(O)c1ccc(Cl)c(Cl)c1 (stereo not shown),-33.2
5,Cn1c(=O)c2c(nc(NCCc3ccccc3)n2Cc2ccccc2)n(C)c1=O,15.1
6,O=C(NCC1CCCN1S(=O)(=O)c1cccs1)C(=O)Nc1cccc(F)c1 (stereo not shown),8.62
7,CCOc1cc(/C=N/NC(=O)c2ccncc2)ccc1OC(=O)c1ccc([N+](=O)[O-])cc1,6.99
8,Cc1ccc(NC(=S)NC(=O)c2ccc(Br)o2)c(C)c1,13.3
9,CCc1nnc(NC(=O)CSc2nnc(Cc3cccn3C)n2CCOC)s1,8.29
10,O=C(NCC(c1cccs1)N1CCOCC1)c1ccc([N+](=O)[O-])cc1 (stereo not shown),-0.778
11,O=C(CC1CCCCC1)NCc1cn2ccsc2n1,15.8
12,COc1ccc(Cc2nc(C(=O)Nc3ccc(F)cc3)cs2)cc1,13.6
13,COc1ccccc1NC(=O)C(C)OC(=O)CCCc1c[nH]c2ccccc12 (stereo not shown),7.15
14,O=C(CCC1CCCC1)N[C@@H](Cc1ccc(O)cc1)C(=O)O,19
15,CCCCn1c(N)c(N(CC(C)C)C(=O)C2CCN(C(=O)c3ccc(Cl)cc3)CC2)c(=O)[nH]c1=O,1.13
16,CC1CCCC(NC(=O)COC(=O)CN2C(=O)C3CCCCC3C2=O)C1C (stereo not shown),15.2
17,COCCN(C(=O)Cn1c(C(F)(F)F)nc2ccccc21)c1c(N)n(Cc2ccccc2)c(=O)[nH]c1=O,0.848
18,O=S(=O)(c1ccc(Cl)cc1)N1CCCC(C(F)(F)F)C1 (stereo not shown),13.3
19,CCOc1ccc(NC(=O)c2ccc(Br)o2)c([N+](=O)[O-])c1,3.16
